Test results from the supplement of paper PMC11876631.
± gives the standard deviation of the averaged measurements. Laboratory Escherichia coli strains with one amino-acid change in an essential protein, pooled on minimal glucose agar with carbenicillin or gentamicin at twice the control MIC (plus kanamycin and chloramphenicol for the plasmids), 48 h. Fold change of barcode share against drug-free plates; higher = less susceptible. Active = above 20 in both replicates (the paper's putatively resistant). '<' = one read or none on drug, '>' = one read or none on a drug-free plate. Shares are relative, so most strains fall below 1 when a few take over. Listed are strains with at least 15 reads on both drug-free plates, and hits; most hits rest on fewer reference reads. Replicate rank correlation about 0.5. Edits are read from barcodes.

B1: trpB M149A (protein)
chain: MTTLLNPYFGEFGGMYVPQILMPALRQLEEAFVSAQKDPEFQAQFNDLLKNYAGRPTALTKCQNITAGTNTTLYLKREDLLHGGAHKTNQVLGQALLAKRMGKTEIIAETGAGQHGVASALASALLGLKCRIYMGAKDVERQSPNVFRARLMGAEVIPVHSGSATLKDACNEALRDWSGSYETAHYMLGTAAGPHPYPTIVREFQRMIGEETKAQILEREGRLPDAVIACVGGGSNAIGMFADFINETNVGLIGVEPGGHGIETGEHGAPLKHGRVGIYFGMKAPMMQTEDGQIEESYSISAGLDFPSVGPQHAYLNSTGRADYVSITDDEALEAFKTLCLHEGIIPALESSHALAHALKMMRENPDKEQLLVVNLSGRGDKDIFTVHDILKARGEI
B2: trpB L188W (protein)
chain: MTTLLNPYFGEFGGMYVPQILMPALRQLEEAFVSAQKDPEFQAQFNDLLKNYAGRPTALTKCQNITAGTNTTLYLKREDLLHGGAHKTNQVLGQALLAKRMGKTEIIAETGAGQHGVASALASALLGLKCRIYMGAKDVERQSPNVFRMRLMGAEVIPVHSGSATLKDACNEALRDWSGSYETAHYMWGTAAGPHPYPTIVREFQRMIGEETKAQILEREGRLPDAVIACVGGGSNAIGMFADFINETNVGLIGVEPGGHGIETGEHGAPLKHGRVGIYFGMKAPMMQTEDGQIEESYSISAGLDFPSVGPQHAYLNSTGRADYVSITDDEALEAFKTLCLHEGIIPALESSHALAHALKMMRENPDKEQLLVVNLSGRGDKDIFTVHDILKARGEI
B3: trpB L188P (protein)
chain: MTTLLNPYFGEFGGMYVPQILMPALRQLEEAFVSAQKDPEFQAQFNDLLKNYAGRPTALTKCQNITAGTNTTLYLKREDLLHGGAHKTNQVLGQALLAKRMGKTEIIAETGAGQHGVASALASALLGLKCRIYMGAKDVERQSPNVFRMRLMGAEVIPVHSGSATLKDACNEALRDWSGSYETAHYMPGTAAGPHPYPTIVREFQRMIGEETKAQILEREGRLPDAVIACVGGGSNAIGMFADFINETNVGLIGVEPGGHGIETGEHGAPLKHGRVGIYFGMKAPMMQTEDGQIEESYSISAGLDFPSVGPQHAYLNSTGRADYVSITDDEALEAFKTLCLHEGIIPALESSHALAHALKMMRENPDKEQLLVVNLSGRGDKDIFTVHDILKARGEI
B4: trpB M149Q (protein)
chain: MTTLLNPYFGEFGGMYVPQILMPALRQLEEAFVSAQKDPEFQAQFNDLLKNYAGRPTALTKCQNITAGTNTTLYLKREDLLHGGAHKTNQVLGQALLAKRMGKTEIIAETGAGQHGVASALASALLGLKCRIYMGAKDVERQSPNVFRQRLMGAEVIPVHSGSATLKDACNEALRDWSGSYETAHYMLGTAAGPHPYPTIVREFQRMIGEETKAQILEREGRLPDAVIACVGGGSNAIGMFADFINETNVGLIGVEPGGHGIETGEHGAPLKHGRVGIYFGMKAPMMQTEDGQIEESYSISAGLDFPSVGPQHAYLNSTGRADYVSITDDEALEAFKTLCLHEGIIPALESSHALAHALKMMRENPDKEQLLVVNLSGRGDKDIFTVHDILKARGEI
B5: trpB M149D (protein)
chain: MTTLLNPYFGEFGGMYVPQILMPALRQLEEAFVSAQKDPEFQAQFNDLLKNYAGRPTALTKCQNITAGTNTTLYLKREDLLHGGAHKTNQVLGQALLAKRMGKTEIIAETGAGQHGVASALASALLGLKCRIYMGAKDVERQSPNVFRDRLMGAEVIPVHSGSATLKDACNEALRDWSGSYETAHYMLGTAAGPHPYPTIVREFQRMIGEETKAQILEREGRLPDAVIACVGGGSNAIGMFADFINETNVGLIGVEPGGHGIETGEHGAPLKHGRVGIYFGMKAPMMQTEDGQIEESYSISAGLDFPSVGPQHAYLNSTGRADYVSITDDEALEAFKTLCLHEGIIPALESSHALAHALKMMRENPDKEQLLVVNLSGRGDKDIFTVHDILKARGEI
B6: trpB L188Q (protein)
chain: MTTLLNPYFGEFGGMYVPQILMPALRQLEEAFVSAQKDPEFQAQFNDLLKNYAGRPTALTKCQNITAGTNTTLYLKREDLLHGGAHKTNQVLGQALLAKRMGKTEIIAETGAGQHGVASALASALLGLKCRIYMGAKDVERQSPNVFRMRLMGAEVIPVHSGSATLKDACNEALRDWSGSYETAHYMQGTAAGPHPYPTIVREFQRMIGEETKAQILEREGRLPDAVIACVGGGSNAIGMFADFINETNVGLIGVEPGGHGIETGEHGAPLKHGRVGIYFGMKAPMMQTEDGQIEESYSISAGLDFPSVGPQHAYLNSTGRADYVSITDDEALEAFKTLCLHEGIIPALESSHALAHALKMMRENPDKEQLLVVNLSGRGDKDIFTVHDILKARGEI
B7: trpB F204W (protein)
chain: MTTLLNPYFGEFGGMYVPQILMPALRQLEEAFVSAQKDPEFQAQFNDLLKNYAGRPTALTKCQNITAGTNTTLYLKREDLLHGGAHKTNQVLGQALLAKRMGKTEIIAETGAGQHGVASALASALLGLKCRIYMGAKDVERQSPNVFRMRLMGAEVIPVHSGSATLKDACNEALRDWSGSYETAHYMLGTAAGPHPYPTIVREWQRMIGEETKAQILEREGRLPDAVIACVGGGSNAIGMFADFINETNVGLIGVEPGGHGIETGEHGAPLKHGRVGIYFGMKAPMMQTEDGQIEESYSISAGLDFPSVGPQHAYLNSTGRADYVSITDDEALEAFKTLCLHEGIIPALESSHALAHALKMMRENPDKEQLLVVNLSGRGDKDIFTVHDILKARGEI
B8: trpB F204A (protein)
chain: MTTLLNPYFGEFGGMYVPQILMPALRQLEEAFVSAQKDPEFQAQFNDLLKNYAGRPTALTKCQNITAGTNTTLYLKREDLLHGGAHKTNQVLGQALLAKRMGKTEIIAETGAGQHGVASALASALLGLKCRIYMGAKDVERQSPNVFRMRLMGAEVIPVHSGSATLKDACNEALRDWSGSYETAHYMLGTAAGPHPYPTIVREAQRMIGEETKAQILEREGRLPDAVIACVGGGSNAIGMFADFINETNVGLIGVEPGGHGIETGEHGAPLKHGRVGIYFGMKAPMMQTEDGQIEESYSISAGLDFPSVGPQHAYLNSTGRADYVSITDDEALEAFKTLCLHEGIIPALESSHALAHALKMMRENPDKEQLLVVNLSGRGDKDIFTVHDILKARGEI
B9: trpB M149P (protein)
chain: MTTLLNPYFGEFGGMYVPQILMPALRQLEEAFVSAQKDPEFQAQFNDLLKNYAGRPTALTKCQNITAGTNTTLYLKREDLLHGGAHKTNQVLGQALLAKRMGKTEIIAETGAGQHGVASALASALLGLKCRIYMGAKDVERQSPNVFRPRLMGAEVIPVHSGSATLKDACNEALRDWSGSYETAHYMLGTAAGPHPYPTIVREFQRMIGEETKAQILEREGRLPDAVIACVGGGSNAIGMFADFINETNVGLIGVEPGGHGIETGEHGAPLKHGRVGIYFGMKAPMMQTEDGQIEESYSISAGLDFPSVGPQHAYLNSTGRADYVSITDDEALEAFKTLCLHEGIIPALESSHALAHALKMMRENPDKEQLLVVNLSGRGDKDIFTVHDILKARGEI
B10: trpB L188D (protein)
chain: MTTLLNPYFGEFGGMYVPQILMPALRQLEEAFVSAQKDPEFQAQFNDLLKNYAGRPTALTKCQNITAGTNTTLYLKREDLLHGGAHKTNQVLGQALLAKRMGKTEIIAETGAGQHGVASALASALLGLKCRIYMGAKDVERQSPNVFRMRLMGAEVIPVHSGSATLKDACNEALRDWSGSYETAHYMDGTAAGPHPYPTIVREFQRMIGEETKAQILEREGRLPDAVIACVGGGSNAIGMFADFINETNVGLIGVEPGGHGIETGEHGAPLKHGRVGIYFGMKAPMMQTEDGQIEESYSISAGLDFPSVGPQHAYLNSTGRADYVSITDDEALEAFKTLCLHEGIIPALESSHALAHALKMMRENPDKEQLLVVNLSGRGDKDIFTVHDILKARGEI
B11: trpB M149W (protein)
chain: MTTLLNPYFGEFGGMYVPQILMPALRQLEEAFVSAQKDPEFQAQFNDLLKNYAGRPTALTKCQNITAGTNTTLYLKREDLLHGGAHKTNQVLGQALLAKRMGKTEIIAETGAGQHGVASALASALLGLKCRIYMGAKDVERQSPNVFRWRLMGAEVIPVHSGSATLKDACNEALRDWSGSYETAHYMLGTAAGPHPYPTIVREFQRMIGEETKAQILEREGRLPDAVIACVGGGSNAIGMFADFINETNVGLIGVEPGGHGIETGEHGAPLKHGRVGIYFGMKAPMMQTEDGQIEESYSISAGLDFPSVGPQHAYLNSTGRADYVSITDDEALEAFKTLCLHEGIIPALESSHALAHALKMMRENPDKEQLLVVNLSGRGDKDIFTVHDILKARGEI
B12: trpB L188A (protein)
chain: MTTLLNPYFGEFGGMYVPQILMPALRQLEEAFVSAQKDPEFQAQFNDLLKNYAGRPTALTKCQNITAGTNTTLYLKREDLLHGGAHKTNQVLGQALLAKRMGKTEIIAETGAGQHGVASALASALLGLKCRIYMGAKDVERQSPNVFRMRLMGAEVIPVHSGSATLKDACNEALRDWSGSYETAHYMAGTAAGPHPYPTIVREFQRMIGEETKAQILEREGRLPDAVIACVGGGSNAIGMFADFINETNVGLIGVEPGGHGIETGEHGAPLKHGRVGIYFGMKAPMMQTEDGQIEESYSISAGLDFPSVGPQHAYLNSTGRADYVSITDDEALEAFKTLCLHEGIIPALESSHALAHALKMMRENPDKEQLLVVNLSGRGDKDIFTVHDILKARGEI

Target: Escherichia coli (laboratory strain)
Assay: barcode share on antibiotic plates over drug-free plates; higher = less susceptible
Description: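 A pool of E. coli strains, each edited to carry one amino-acid change in an essential protein, was grown for 48 h on minimal glucose agar with or without antibiotic; strain barcodes were sequenced; mean of two replicates.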

[1] = antibiotic: carbenicillin, 2× MIC (3.1 µg/mL)
[2] = antibiotic: gentamicin, 2× MIC (MIC 0.45 µg/mL)

Row | Protein | fold change of barcode share [1] | fold change of barcode share [2]
1 | B1 | 1.08 ± 0.89 | 0.00978 ± 0.0056
2 | B2 | 0.456 ± 0.27 | 0.0464 ± 0.032
3 | B3 | 0.319 ± 0.024 | 0.0134 ± 0.012
4 | B4 | 0.562 ± 0.069 | 0.037 ± 0.0058
5 | B5 | 0.65 ± 0.12 | 
6 | B6 | 0.275 ± 0.1 | 0.401 ± 0.55
7 | B7 | 0.45 ± 0.039 | 0.0066 ± 0.003
8 | B8 | 0.426 ± 0.18 | 0.00966 ± 0.0074
9 | B9 | 0.843 ± 0.056 | 0.0409 ± 0.027
10 | B10 | 0.473 ± 0.26 | < 0.00513
11 | B11 | 0.53 ± 0.11 | 0.0239 ± 0.015
12 | B12 | 0.347 ± 0.12 | 0.0113 ± 0.0043
